Experimental findings from article PMC4336329 (PLoS ONE, 2015) are described below.

Out of some 310,000 compounds screened, about 2,200 (0.71%) showed an effect of 50% or more. Effects have a minus sign here. The list shows a part of the results.

human ether-à-go-go-related gene (hERG) potassium channel, sequence (Q12809 whole entry, looked up): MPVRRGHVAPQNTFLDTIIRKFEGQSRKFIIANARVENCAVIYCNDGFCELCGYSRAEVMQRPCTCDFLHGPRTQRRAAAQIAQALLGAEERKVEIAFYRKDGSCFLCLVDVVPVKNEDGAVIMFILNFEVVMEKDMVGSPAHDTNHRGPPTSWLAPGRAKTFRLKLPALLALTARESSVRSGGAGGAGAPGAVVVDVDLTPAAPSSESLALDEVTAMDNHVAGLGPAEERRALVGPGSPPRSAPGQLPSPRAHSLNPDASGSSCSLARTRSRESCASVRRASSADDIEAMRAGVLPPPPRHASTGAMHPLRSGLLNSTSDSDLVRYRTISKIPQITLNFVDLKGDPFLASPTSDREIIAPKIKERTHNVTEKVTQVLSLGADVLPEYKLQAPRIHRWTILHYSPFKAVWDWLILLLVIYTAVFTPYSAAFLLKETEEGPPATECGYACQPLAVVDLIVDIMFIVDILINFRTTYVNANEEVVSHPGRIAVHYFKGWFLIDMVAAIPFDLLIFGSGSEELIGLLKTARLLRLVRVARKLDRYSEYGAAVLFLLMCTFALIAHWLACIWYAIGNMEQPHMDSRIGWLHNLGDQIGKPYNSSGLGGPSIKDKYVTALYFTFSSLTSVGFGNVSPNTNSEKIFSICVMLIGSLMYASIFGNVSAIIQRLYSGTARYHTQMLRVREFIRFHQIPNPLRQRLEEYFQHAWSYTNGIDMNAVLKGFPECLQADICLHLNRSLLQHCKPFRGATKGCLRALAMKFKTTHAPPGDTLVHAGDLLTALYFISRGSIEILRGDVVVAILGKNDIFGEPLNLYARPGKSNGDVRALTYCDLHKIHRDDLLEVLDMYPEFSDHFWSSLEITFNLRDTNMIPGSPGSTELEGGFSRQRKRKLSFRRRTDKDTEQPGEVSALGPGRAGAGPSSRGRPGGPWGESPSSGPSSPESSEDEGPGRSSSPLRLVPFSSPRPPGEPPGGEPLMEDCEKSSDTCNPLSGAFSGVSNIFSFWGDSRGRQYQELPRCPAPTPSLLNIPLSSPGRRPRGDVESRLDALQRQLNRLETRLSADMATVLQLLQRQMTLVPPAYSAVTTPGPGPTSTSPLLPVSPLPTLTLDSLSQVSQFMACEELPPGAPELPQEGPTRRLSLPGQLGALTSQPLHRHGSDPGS

The test concerns the target human ether-à-go-go-related gene (hERG) potassium channel (human, UniProt Q12809). The test can be described thus: primary screen, population patch clamp on CHO cells stably expressing hERG.
`N/C(=N\OC(=O)c1ccc(Cl)c([N+](=O)[O-])c1)c1ccccc1`: the “hERG current change (%, negative = inhibition) at 1uM” value turned out to be 18%.

For the compound `C=CCn1cnc2c(nnn2-c2ccc(C)c(C)c2)c1=O`, the “hERG current change (%, negative = inhibition) at 1uM” value is 5.5%.

In the case of `Nc1nc(SCCN2C(=O)c3ccccc3C2=O)n[nH]1`, the “hERG current change (%, negative = inhibition) at 1uM” value was -33.6%.

For `CCC(c1ccccc1)c1nnc(NC(=O)c2ccco2)s1` (centres unmarked), the “hERG current change (%, negative = inhibition) at 1uM” value was found to be 14.1%.

`CCCC1CCC(C(=O)n2nc(N)c3cc4ccc(OC)cc4nc32)CC1` (centres unmarked): the “hERG current change (%, negative = inhibition) at 1uM” value came to 11.9%.

Regarding `CCOc1ccc(N/C(C)=C\C(=O)c2ccc3c(c2)OCCO3)cc1`, the “hERG current change (%, negative = inhibition) at 1uM” value is reported as -1.61%.

Take `Cc1ccc(C)c(NC2=NCC(=O)N2C2CCCCC2)c1`: the “hERG current change (%, negative = inhibition) at 1uM” value came to 15%.

As for `CSC1=C(C#N)C(c2ccccc2C)C(C#N)=C(N)N1` (centres unmarked), the “hERG current change (%, negative = inhibition) at 1uM” value was found to be 9.04%.

For the compound `CCOC(=O)c1[nH]nc(N)c1NC(=O)c1ccc(Cl)cc1Cl`, the “hERG current change (%, negative = inhibition) at 1uM” value was 8.3%.

As for `COCCNC(=S)N1CCC(NC(=O)c2ccco2)CC1`, the “hERG current change (%, negative = inhibition) at 1uM” value was 6.24%.

Turning to `CCOC(=O)c1ccc2c(c1)nc(-c1ccc(F)cc1)c1nccn12`, the “hERG current change (%, negative = inhibition) at 1uM” value was found to be 7.83%.

Regarding `O=C(NC1CCCCC1)C1CC(=O)N(CCc2ccccc2)C1` (centres unmarked), the “hERG current change (%, negative = inhibition) at 1uM” value is -7.54%.

Regarding `C/C1=C\[C@@H](C)C/C=C/[C@H]2[C@@H]3O[C@]3(C)[C@@H](C)[C@H]3[C@H](Cc4c[nH]c5ccccc45)NC(=O)[C@]32C(=O)/C=C/C(=O)[C@@H]1O`, the “hERG current change (%, negative = inhibition) at 1uM” value came out at 13.7%.

With `CC(C)CC(c1nnnn1C1CCCCC1)N1CCN(c2ncccn2)CC1` (centres unmarked), the “hERG current change (%, negative = inhibition) at 1uM” value is on record as 11.6%.

In the case of `Cc1cc(C(=O)Nc2ccc3c(c2)OCCO3)co1`, the “hERG current change (%, negative = inhibition) at 1uM” value is 12.5%.

With `Clc1ccc(-c2nnc3sc(-c4ccc(Br)o4)nn23)c(Cl)c1`, the “hERG current change (%, negative = inhibition) at 1uM” value is recorded as 9.59%.

For `Cc1nc(NS(=O)(=O)c2ccccc2)sc1NC(=O)Nc1ccccc1`, the “hERG current change (%, negative = inhibition) at 1uM” value was found to be 19.3%.

For `CCCc1ccc2oc(C(=O)N3CCN(c4cnccn4)CC3)c(C)c2c1`, the “hERG current change (%, negative = inhibition) at 1uM” value is -5.34%.

Take `CCCNC(=O)c1ccc(C)c(NC(=O)C2=C(C)OCCS2)c1`: the “hERG current change (%, negative = inhibition) at 1uM” value turned out to be 12.2%.

On to `O=C1NCC(COc2cccc3ccccc23)O1` (centres unmarked), for which the “hERG current change (%, negative = inhibition) at 1uM” value was found to be 16.5%.

As for `COc1ccc(NC(=O)CN(C)C(=O)c2cccc3ccccc23)cc1`, the “hERG current change (%, negative = inhibition) at 1uM” value turned out to be 8.34%.

Turning to `Cn1cc(/C=C(\C#N)C(=O)Nc2ncc(Cc3ccc(Cl)cc3)s2)c2ccccc21`, the “hERG current change (%, negative = inhibition) at 1uM” value was 8.9%.

On to `Cc1cc(CNC(=O)c2cc(COc3c(F)cccc3F)on2)nn1C`, for which the “hERG current change (%, negative = inhibition) at 1uM” value came to 13.9%.

`Cc1cnc(CNC(=O)CC2C(=O)NCCN2Cc2cccc(F)c2F)cn1` (centres unmarked): the “hERG current change (%, negative = inhibition) at 1uM” value is 13.5%.

For the compound `Cc1nn(-c2cccc(Cl)c2)nc1C(=O)O`, the “hERG current change (%, negative = inhibition) at 1uM” value stood at 4.45%.

For `C=C1CCC[C@]2(C)C[C@H]3OC(=O)C(CN(Cc4ccc(OC)c(OC)c4)CC(C)O)[C@H]3CC12` (some centres unmarked), the “hERG current change (%, negative = inhibition) at 1uM” value is 4.47%.

Consider `Cc1ccc(OCc2nnc(SCC(=O)N3CCOCC3)n2C)cc1`, for which the “hERG current change (%, negative = inhibition) at 1uM” value came to 18.4%.

As for `C=CCOc1ccccc1CNc1ccc2c(c1)OCCO2.Cl`, the “hERG current change (%, negative = inhibition) at 1uM” value was found to be 4.19%.

As to `CC(=O)Nc1ccc(S(=O)(=O)NCCC(=O)NNC(=O)c2ccccc2O)cc1`, the “hERG current change (%, negative = inhibition) at 1uM” value came out at 1.2%.

`CSc1ccccc1NC(=O)CSc1nnc(COc2ccccc2)o1`: the “hERG current change (%, negative = inhibition) at 1uM” value came out at 2.68%.

As for `CN1C(=O)c2ccc(NC(=O)CCS(=O)(=O)c3ccccc3)cc2C1=O`, the “hERG current change (%, negative = inhibition) at 1uM” value is -1.99%.

With `CCCCc1cc(=O)oc2c(C)c(OCC(=O)NCCN3CCOCC3)ccc12`, the “hERG current change (%, negative = inhibition) at 1uM” value was -77.1%.

Regarding `CCOC(=O)C1CCCN(c2nc3ccccc3nc2C(C#N)C(=O)OC(C)C)C1` (centres unmarked), the “hERG current change (%, negative = inhibition) at 1uM” value is 16.1%.

On to `CC(C)C(=O)NNC(=O)CSc1ncnc2c1cnn2-c1ccccc1Cl`, for which the “hERG current change (%, negative = inhibition) at 1uM” value was determined as 13.9%.

For the compound `O=C(NN1CCOCC1)c1cc(-c2ccc(Cl)c(Cl)c2)nc2ccccc12`, the “hERG current change (%, negative = inhibition) at 1uM” value came to 15.3%.

For the compound `O=C(O)CCN1C(=O)C2C3C=CC(C3)C2C1=O` (centres unmarked), the “hERG current change (%, negative = inhibition) at 1uM” value was determined as 14.6%.

On to `Cc1ccc(C)c2nc3sc(C(=O)N4CCOCC4)c(N)c3cc12`, for which the “hERG current change (%, negative = inhibition) at 1uM” value amounted to 14.7%.

Regarding `O=C(O)c1c(C(=O)O)c(-c2ccc(Br)cc2)n2c1CSC2`, the “hERG current change (%, negative = inhibition) at 1uM” value was 11.8%.

`CCCC(=O)Nc1ccc2oc(-c3ccncc3)nc2c1`: the “hERG current change (%, negative = inhibition) at 1uM” value is 6.75%.

Regarding `COc1ccc(OC)c(C(=O)NC(CC(N)=O)c2ccc(N3CCCCCC3)c([N+](=O)[O-])c2)c1` (centres unmarked), the “hERG current change (%, negative = inhibition) at 1uM” value was 4.41%.

With `N#CCc1c(C#N)c(N)nc(N2CCCC(CO)C2)c1C#N` (centres unmarked), the “hERG current change (%, negative = inhibition) at 1uM” value is 3.2%.

Turning to `O=C(NCCCN1CCOCC1)c1cc(-c2cccc(O)c2)on1`, the “hERG current change (%, negative = inhibition) at 1uM” value was determined as 10.2%.

As for `O=C1c2cccc3cccc(c23)C(=O)N1Cc1ccco1`, the “hERG current change (%, negative = inhibition) at 1uM” value is reported as 15%.

As to `N#Cc1cc(-c2ccc(Cl)cc2)cn(Cc2c(Cl)cccc2Cl)c1=O`, the “hERG current change (%, negative = inhibition) at 1uM” value is -1.66%.

Regarding `COc1ccc2c(c1[N+](=O)[O-])CCC/C2=N/OC(=O)c1ccccc1SC`, the “hERG current change (%, negative = inhibition) at 1uM” value came to 8.44%.

`COc1ccc(C(=O)Nc2cc3c(cc2C#N)OCO3)cc1S(=O)(=O)NCc1ccco1`: the “hERG current change (%, negative = inhibition) at 1uM” value is 4.44%.

In the case of `O=C(Nc1ccc2c(c1)Cc1ccccc1-2)c1ccncc1`, the “hERG current change (%, negative = inhibition) at 1uM” value was 13.6%.

In the case of `COc1ccc(CC(=O)Nc2ccc3nc(C)sc3c2)cc1OC`, the “hERG current change (%, negative = inhibition) at 1uM” value turned out to be 6.17%.

For the compound `O/N=C/c1ccccc1OCc1ccccc1F`, the “hERG current change (%, negative = inhibition) at 1uM” value was found to be 7.63%.

For the compound `CCOc1nc(CC)nc(NC(=O)NS(=O)(=O)c2ccccc2Cl)n1`, the “hERG current change (%, negative = inhibition) at 1uM” value was found to be 14.9%.

On to `COc1ccc(C(=O)NCCN2CCCC2)cc1.Cl`, for which the “hERG current change (%, negative = inhibition) at 1uM” value stood at 11%.

Regarding `CC(C)(C)c1ccc(C(=O)NNc2ncccc2-n2cccc2)cc1`, the “hERG current change (%, negative = inhibition) at 1uM” value was 14.4%.

As to `Cc1csc(NC(=O)C2CCCN(S(=O)(=O)c3ccc4c(c3)oc(=O)n4C)C2)n1` (centres unmarked), the “hERG current change (%, negative = inhibition) at 1uM” value is given as 8.68%.

For `COc1cc(C(=O)NC2CC(C)(C)NC(C)(C)C2)cc(OC)c1OC`, the “hERG current change (%, negative = inhibition) at 1uM” value is 18.5%.

For the compound `O=C(Nc1ncnc2c1ncn2C1OC(COC(=O)c2ccccc2)C(F)C1O)c1ccccc1` (centres unmarked), the “hERG current change (%, negative = inhibition) at 1uM” value was determined as 10.1%.

For the compound `COc1ccc(CNC(=O)C[C@H]2C(=O)N(CCc3ccccc3)C[C@@H]2Cc2ccccc2)cc1`, the “hERG current change (%, negative = inhibition) at 1uM” value was -2.82%.
